# Test results reported in the supplement of paper PMC3334620.
# In all, about 33,000 sequences were measured (“E-score (-0.5 to 0.5)”: median about -0.054, highest 2% from about 0.39 on). The list shows a part of the results.
# Target: Ylr278c (UniProt Q05854)
# Experiment: PBM E-score (8-mer binding enrichment) (E-score (-0.5 to 0.5)); higher = stronger / more preferred TF binding; most listed sequences are background and not binding sites
# Conditions: protein concentration: 200 nM; construct: GST-DNA-binding domain
# Method: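 Universal 'all 10-mer' protein binding microarrays (Agilent AMADID 015681) probed with GST-tagged S. cerevisiae TFs (full-length or DBD) made by in vitro transcription/translation (PURExpress), about 100-200 nM. Bound TF was detected with fluorescent anti-GST. Each ungapped 8-mer (which stands for itself and its reverse complement) is scored by the PBM enrichment score (E-score), a modified Wilcoxon-Mann-Whitney statistic from -0.5 to +0.5, computed with the Universal PBM Analysis Suite. Scale: above 0.35 generally sequence-specific binding.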
row,Sequence,PBM E-score
1,GACTATCC,0.068
2,ATTAGTAG,-0.119
3,CTCCCATC,0.0174
4,GCCACGGA,0.22
5,AACAACTT,-0.0233
6,CAGAGACA,-0.195
7,ACACCTCT,-0.119
8,ACAACTTC,0.0889
9,CGGCCTCA,0.175
10,GAATTAGA,-0.00804
11,ACACTTTG,-0.077
12,GCTGCAAA,-0.172
13,TTATGAAA,-0.0429
14,AGCTCGTC,-0.0504
15,AATCGAAG,-0.0454
16,CACTCCGG,0.46
17,CAATCCTG,-0.108
18,ATGGCTGA,-0.344
19,CGCCGGAC,0.447
20,ATTTGCGG,0.35
21,CCGATGCC,0.357
22,TAGCGAGA,-0.0935
23,AACCCTCT,-0.241
24,AGCCTAGC,0.0291
25,AGACCCGA,0.182

row,Sequence,PBM E-score
1,CCGCGTCA,-0.0131
2,TGCTACCA,-0.274
3,CTACACTC,-0.143
4,ACCTCTTG,0.0564
5,TAGCACGA,-0.17
6,AACCCGAA,0.159
7,AGGCTCAG,-0.354
8,CCTAGGTA,-0.14
9,GGCGGAAA,0.328
10,ATACCCCC,0.0218
11,CGGGAAAC,0.297
12,ACTCTGAG,-0.247
13,CGGTCGTC,0.091
14,ACCATGGT,-0.444
15,CCCCTTTA,-0.277
16,CCCCCACC,-0.194
17,ATACTCTC,0.0286
18,CACGGGAA,0.0802
19,GAGAACCA,0.0202
20,CCCAGACG,-0.203
21,AGGGCACT,-0.272
22,ATCTCTTG,-0.163
23,CTCCCATA,-0.152
24,GCTACGCC,-0.0899
25,GAGGGAAA,-0.26

row,Sequence,PBM E-score
1,ATTGCAGA,-0.0988
2,CCGTAACC,0.221
3,CACCCTGG,-0.197
4,ACAGCCAC,-0.0864
5,CCTCATGC,-0.234
6,AAATTCAT,-0.0822
7,ATCGTCCG,0.327
8,ACTTCATG,-0.172
9,CACCCGTA,0.0195
10,AGAGGAGC,-0.277
11,CCGCGAAC,0.257
12,AACAGTTA,0.095
13,ACGCGCCG,0.214
14,AATCCATG,-0.0812
15,GACCAAAC,-0.0647
16,TAGTCCGA,0.415
17,GCTCAGCA,-0.181
18,AAGTATTA,-0.173
19,ACACCCGC,0.108
20,ACCCCTAC,-0.211
21,AATAGGTG,-0.164
22,CTTGGACA,-0.134
23,AGCCCTAT,-0.156
24,CTTACACC,-0.0303
25,AAAAACAT,-0.153

row,Sequence,PBM E-score
1,GAAACTTA,0.111
2,CGTAGAAA,-0.142
3,AGTTTTTA,-0.238
4,AGGAAGCA,-0.14
5,AGATTCAT,-0.21
6,CAGTCGCC,-0.0183
7,TGAACCCA,-0.0431
8,CCTGAGGA,-0.069
9,CAAGTGGA,-0.151
10,AAACTTTA,0.0301
11,AGCCGGAT,0.404
12,CACAACAA,-0.0681
13,AATCTGGT,0.0573
14,CGTACTAC,0.0532
15,ATAGGCTG,-0.272
16,AGTCAGGG,-0.314
17,AGCCTTGC,-0.137
18,ACTATGTC,-0.0396
19,GCTTCGAC,-0.161
20,ACGTAGGG,-0.204
21,CGAGCAGC,-0.0223
22,GAGGATCA,-0.0641
23,GTGGTTGA,-0.195
24,AGATGGAA,-0.0221
25,AATTTAGT,0.087

row,Sequence,PBM E-score
1,TGCGGCCA,0.00758
2,CCAAATGG,-0.0754
3,AAGGCGTA,-0.257
4,CGGTTCGC,0.131
5,TCGGTGAA,0.207
6,AAGCTTAC,-0.225
7,TAACATGA,-0.167
8,AAAACCTC,0.11
9,CGCCCTGC,0.0947
10,GAGGGAGA,-0.145
11,ATTAAGCA,-0.0912
12,CAGTGCTC,-0.197
13,CGAGGTTA,0.0177
14,CCTTTTTA,-0.0536
15,TGAGGCCA,-0.19
16,ACTGTGCA,-0.305
17,AGCCTACG,-0.0888
18,CATTGGAC,-0.0342
19,CGTAAATC,0.164
20,AAGCGTAC,-0.246
21,ATAGGATG,-0.0679
22,AATCTATA,-0.082
23,CGGGGTGA,0.247
24,AGCGAGGC,-0.211
25,CACGTACA,-0.177

row,Sequence,PBM E-score
1,AGTCCGCC,0.424
2,ATAGTAAG,-0.11
3,GCGAGTTA,-0.055
4,CAGCTTCG,-0.133
5,GACTTCGA,-0.111
6,CGCAACCG,0.172
7,GATTTAGA,0.0778
8,CGTTTTAG,-0.195
9,GGACCACA,0.0696
10,GCTCAGGA,-0.173
11,AAAGTGTT,0.0904
12,ACGAAGTA,-0.0982
13,ACTCGGGG,0.237
14,GGACTGTA,-0.0447
15,CGGCAAAC,0.312
16,ACATCGCT,-0.208
17,AGGTTCCA,-0.0418
18,AATGCGGT,0.116
19,CCTCCAGA,0.0579
20,AGGCAGAT,-0.0902
21,GGAGTCCA,0.164
22,TAATTAAA,-0.156
23,ATCATTGG,-0.246
24,CATCCCTC,-0.0278
25,TAAATGCA,0.012

row,Sequence,PBM E-score
1,AAGAGAAG,-0.156
2,AGCGTTGC,0.0275
3,TAATCGCA,-0.119
4,AGTCAGAG,-0.0321
5,CAACGGCG,0.207
6,AGTGTTGC,-0.0795
7,ACTCCGCC,0.475
8,ACTCACCC,0.123
9,TAGAACGA,-0.292
10,AATATGTA,-0.027
11,AGGTTCGC,0.0317
12,ACGACAGG,-0.0204
13,TGAACGAA,-0.229
14,CAAGTGAA,-0.204
15,ATACACCC,0.093
16,CTAGAGTC,-0.358
17,AGAGACTC,-0.105
18,CGAGTGCG,0.225
19,AAGGCATC,-0.193
20,CTAAAGCA,0.047
21,ATGTATCG,0.00707
22,ATCAGGTG,-0.00107
